# Some of the results follow.
# B1: PRKCE (Homo sapiens), Q02156 (protein)
# chain: MVVFNGLLKIKICEAVSLKPTAWSLRHAVGPRPQTFLLDPYIALNVDDSRIGQTATKQKTNSPAWHDEFVTDVCNGRKIELAVFHDAPIGYDDFVANCTIQFEELLQNGSRHFEDWIDLEPEGRVYVIIDLSGSSGEAPKDNEERVFRERMRPRKRQGAVRRRVHQVNGHKFMATYLRQPTYCSHCRDFIWGVIGKQGYQCQVCTCVVHKRCHELIITKCAGLKKQETPDQVGSQRFSVNMPHKFGIHNYKVPTFCDHCGSLLWGLLRQGLQCKVCKMNVHRRCETNVAPNCGVDARGIAKVLADLGVTPDKITNSGQRRKKLIAGAESPQPASGSSPSEEDRSKSAPTSPCDQEIKELENNIRKALSFDNRGEEHRAASSPDGQLMSPGENGEVRQGQAKRLGLDEFNFIKVLGKGSFGKVMLAELKGKDEVYAVKVLKKDVILQDDDVDCTMTEKRILALARKHPYLTQLYCCFQTKDRLFFVMEYVNGGDLMFQIQRSRKFDEPRSRFYAAEVTSALMFLHQHGVIYRDLKLDNILLDAEGHCKLADFGMCKEGILNGVTTTTFCGTPDYIAPEILQELEYGPSVDWWALGVLMYEMMAGQPPFEADNEDDLFESILHDDVLYPVWLSKEAVSILKAFMTKNPHKRLGCVASQNGEDAIKQHPFFKEIDWVLLEQKKIKPPFKPRIKTKRDVNNFDQDFTREEPVLTLVDEAIVKQINQEEFKGFSYFGEDLMP
# How the values were obtained:
# Test in all cases: glycan array binding signal (z-score within array); higher = stronger binding
# Details in all cases: glycan notation: IUPAC condensed, linker removed
# Gal(a1-4)Gal(b1-4)GlcNAc = molecular target: Gal(a1-4)Gal(b1-4)GlcNAc
# Method in brief: (§1)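 Arrays were curated from the Consortium for Functional Glycomics database, 3228 in total, and kept only where the protein sequence was available. Binding is expressed as a within-array Z-score. This score was averaged across arrays of the same protein sequence at different concentrations or buffers and across linkers, and negative values can be read as non-binding.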
# [1] = molecular target: Gal(a1-4)Gal(b1-4)GlcNAc(b1-2)Man(a1-3)[Gal(a1-4)Gal(b1-4)GlcNAc(b1-2)Man(a1-6)]Man(b1-4)GlcNAc(b1-4)GlcNAc
# Method in brief: as §1
# [2] = molecular target: Gal(a1-4)Gal(b1-4)GlcNAc(b1-3)Gal(b1-4)Glc
# Method in brief: as §1
# Gal(a1-4)GlcNAc = molecular target: Gal(a1-4)GlcNAc
# Method in brief: as §1
# Gal(a1-6)Glc = molecular target: Gal(a1-6)Glc
# Method in brief: as §1
# Gal(b1-2)Gal = molecular target: Gal(b1-2)Gal
# Method in brief: as §1
# Gal(b1-3)Gal = molecular target: Gal(b1-3)Gal
# Method in brief: as §1
# Gal(b1-3)Gal(b1-4)GlcNAc = molecular target: Gal(b1-3)Gal(b1-4)GlcNAc
# Method in brief: as §1
# [3] = molecular target: Gal(b1-3)Gal(b1-4)GlcNAc(b1-2)Man(a1-3)[Gal(b1-3)Gal(b1-4)GlcNAc(b1-2)Man(a1-6)]Man(b1-4)GlcNAc(b1-4)GlcNAc
# Method in brief: as §1
# Gal(b1-3)GalNAc = molecular target: Gal(b1-3)GalNAc
# Method in brief: as §1
# [4] = molecular target: Gal(b1-3)GalNAc(a1-3)[Fuc(a1-2)]Gal(b1-4)Glc
# Method in brief: as §1
# [5] = molecular target: Gal(b1-3)GalNAc(a1-3)[Fuc(a1-2)]Gal(b1-4)GlcNAc
# Method in brief: as §1
# [6] = molecular target: Gal(b1-3)GalNAc(b1-3)Gal(a1-4)Gal(b1-4)Glc
# Method in brief: as §1
# [7] = molecular target: Gal(b1-3)GalNAc(b1-4)Gal(b1-4)Glc
# Method in brief: as §1
# [8] = molecular target: Gal(b1-3)GalNAc(b1-4)[Neu5Ac(a2-3)]Gal(b1-4)Glc
# Method in brief: as §1
# Gal(b1-3)GlcNAc = molecular target: Gal(b1-3)GlcNAc
# Method in brief: as §1
# [9] = molecular target: Gal(b1-3)GlcNAc(a1-3)Gal(b1-4)GlcNAc
# Method in brief: as §1
# [10] = molecular target: Gal(b1-3)GlcNAc(a1-6)Gal(b1-4)GlcNAc
# Method in brief: as §1
# [11] = molecular target: Gal(b1-3)GlcNAc(b1-2)Man(a1-3)[Gal(b1-3)GlcNAc(b1-2)Man(a1-6)]Man(b1-4)GlcNAc(b1-4)GlcNAc
# Method in brief: as §1
# [12] = molecular target: Gal(b1-3)GlcNAc(b1-2)Man(a1-3)[Gal(b1-3)GlcNAc(b1-2)Man(a1-6)]Man(b1-4)GlcNAc(b1-4)[Fuc(a1-6)]GlcNAc
# Method in brief: as §1
# [13] = molecular target: Gal(b1-3)GlcNAc(b1-2)Man(a1-3)[GlcNAc(b1-4)][Gal(b1-3)GlcNAc(b1-2)Man(a1-6)]Man(b1-4)GlcNAc(b1-4)GlcNAc
# Method in brief: as §1
# [14] = molecular target: Gal(b1-3)GlcNAc(b1-2)[Gal(b1-3)GlcNAc(b1-6)]Man(a1-6)[Gal(b1-3)GlcNAc(b1-2)Man(a1-3)]Man(b1-4)GlcNAc(b1-4)GlcNAc
# Method in brief: as §1
# [15] = molecular target: Gal(b1-3)GlcNAc(b1-3)Gal(b1-3)GlcNAc
# Method in brief: as §1
# [16] = molecular target: Gal(b1-3)GlcNAc(b1-3)Gal(b1-4)Glc
# Method in brief: as §1
# [17] = molecular target: Gal(b1-3)GlcNAc(b1-3)Gal(b1-4)GlcNAc
# Method in brief: as §1
# [18] = molecular target: Gal(b1-3)GlcNAc(b1-3)Gal(b1-4)GlcNAc(b1-6)[Gal(b1-3)GlcNAc(b1-3)]Gal(b1-4)Glc
# Method in brief: as §1
# [19] = molecular target: Gal(b1-3)GlcNAc(b1-3)Gal(b1-4)[Fuc(a1-3)]GlcNAc(b1-6)[Gal(b1-3)GlcNAc(b1-3)]Gal(b1-4)Glc
# Method in brief: as §1
# [20] = molecular target: Gal(b1-3)GlcNAc(b1-3)GalNAc
# Method in brief: as §1
# [21] = molecular target: Gal(b1-3)GlcNAc(b1-6)Gal(b1-4)GlcNAc
# Method in brief: as §1
# [22] = molecular target: Gal(b1-3)GlcNAc(b1-6)GalNAc
# Method in brief: as §1
binder,measurement,setting,value
B1,glycan array binding signal (z-score),Gal(a1-4)Gal(b1-4)GlcNAc,-0.379
same,glycan array binding signal (z-score),[1],-0.363
same,glycan array binding signal (z-score),[2],-0.141
same,glycan array binding signal (z-score),Gal(a1-4)GlcNAc,-0.219
same,glycan array binding signal (z-score),Gal(a1-6)Glc,0.372
same,glycan array binding signal (z-score),Gal(b1-2)Gal,-0.175
same,glycan array binding signal (z-score),Gal(b1-3)Gal,-0.295
same,glycan array binding signal (z-score),Gal(b1-3)Gal(b1-4)GlcNAc,-0.177
same,glycan array binding signal (z-score),[3],-0.328
same,glycan array binding signal (z-score),Gal(b1-3)GalNAc,-0.389
same,glycan array binding signal (z-score),[4],-0.17
same,glycan array binding signal (z-score),[5],-0.198
same,glycan array binding signal (z-score),[6],-0.366
same,glycan array binding signal (z-score),[7],-0.385
same,glycan array binding signal (z-score),[8],-0.139
same,glycan array binding signal (z-score),Gal(b1-3)GlcNAc,-0.364
same,glycan array binding signal (z-score),[9],-0.29
same,glycan array binding signal (z-score),[10],-0.301
same,glycan array binding signal (z-score),[11],0.131
same,glycan array binding signal (z-score),[12],-0.306
same,glycan array binding signal (z-score),[13],-0.364
same,glycan array binding signal (z-score),[14],-0.379
same,glycan array binding signal (z-score),[15],-0.417
same,glycan array binding signal (z-score),[16],-0.1
same,glycan array binding signal (z-score),[17],-0.361
same,glycan array binding signal (z-score),[18],-0.234
same,glycan array binding signal (z-score),[19],-0.277
same,glycan array binding signal (z-score),[20],-0.357
same,glycan array binding signal (z-score),[21],-0.374
same,glycan array binding signal (z-score),[22],0.309
